Assay results published in the RNAGym collection of RNA variant scans (doi:10.1093/nar/gkz1192).
The source gives no read counts; variants with many changes may rest on few reads.

B1: CPEB3 Ribozyme (parent)
chain: UAACAGGGGGCCACAGCAGAAGCGUUCACGUCGCAGCCCCUGUCAGAUUCUGGUGAAUCUGCGAAUUCUGCUGUAUAUCUC

Variants of: B1
Test: self-cleavage, relative activity (ratio to wild type); higher = more cleavage; in vitro, sequencing
Method in brief: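 Relative activity compares each variant's cleaved/total read fraction with that of the unmutated ribozyme. To get these fractions, barcoded CPEB3 ribozyme libraries from rounds of error-prone PCR were transcribed with T7 RNA polymerase for 5 hours at 37°C and then given 15 min of DNase I treatment before EDTA was added. The RNAs were reverse transcribed with template switching and sequenced on Illumina, and DNA sequencing linked barcodes to variants. A minimum of 5 reads applied, and three batches were averaged.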
With G8C A18U A35U A65G U67C U74G the self-cleavage was 0.07. For G8C A18U U67C U80A, the self-cleavage was 0.35. For G8C A20C G36A C38A A65G U67C, the self-cleavage was 0.21. Variant G8C A21G A28G C40G G63A U69C C81G has a self-cleavage of 0.04. G8C A21G A35U A47C U48C U67C gave a self-cleavage of 0.03. For G8C A47G U58C, the self-cleavage was 0.08. With G8C A47U A77C the self-cleavage was 0.13. G8C A65G G73U U80A gave a self-cleavage of 0.06. G8C C14A A35G U51A U80C gave a self-cleavage of 0.12. G8C C34A U43C U58C U72C showed a self-cleavage of 0.14. G8C G24A U51A C62A U67C C68U showed a self-cleavage of 0.05. With G8C G52U A56U the self-cleavage was 0.26. G8C U26C U67C showed a self-cleavage of 0.14. Variant G8C U43A A65U U76C has a self-cleavage of 0.08. With G8C U54C U76C the self-cleavage was 0.25. Variant G8C U58C G63U U66C U69A has a self-cleavage of 0.1. G8C U66C U69A showed a self-cleavage of 0.23. For G8U A13C A18G U25C, the self-cleavage was 0.17. For G8U A13G G33A U60A U78C, the self-cleavage was 0.07. Variant G8U A13G G52A G73U has a self-cleavage of 0.32. G8U A13G G63U showed a self-cleavage of 0.34. G8U A13U U25C A56G G61C U72C A75U showed a self-cleavage of 0.05. G8U A13U U26C C32U U54A U60G U69A showed a self-cleavage of 0.07. For G8U A13U U41A U66C U67G A77U, the self-cleavage was 0.04. For G8U A15G A21G U72G, the self-cleavage was 0.11. G8U A15U A20G A56G U67A U74A U76A showed a self-cleavage of 0.02. G8U A15U U25C U43G A45U A57G showed a self-cleavage of 0.03. G8U A18G A56U A64G gave a self-cleavage of 0.16. G8U A18G C39G A57G U60A showed a self-cleavage of 0.03. For G8U A18U U25C U43G U49A U69C, the self-cleavage was 0.09. Work on G8U A20G U60C U69G yielded a self-cleavage of 0.04. For G8U A20U A21C C40U U60C, the self-cleavage was 0.05. With G8U A28G A64G G70C the self-cleavage was 0.1. For G8U A28G U43C U48C G55A G70C, the self-cleavage was 0.22. For G8U A28G U54C U66G, the self-cleavage was 0.11. With G8U A35G C44U U80C the self-cleavage was 0.06. Work on G8U A35G U43A U80C yielded a self-cleavage of 0.1. In the case of G8U A45G U48C G53U U72C, the self-cleavage is reported as 0.07. Work on G8U A45G U48C U80A yielded a self-cleavage of 0.05. Work on G8U A45G U58G yielded a self-cleavage of 0.3. For G8U A56U G63A U69C U76A, the self-cleavage was 0.04. G8U A57G A64G gave a self-cleavage of 0.11. G8U A64U U72C showed a self-cleavage of 0.04. For G8U C11U A18U U49A C62U A64U U74C, the self-cleavage was 0.03. With G8U C14G U67C U69C the self-cleavage was 0.06. Variant G8U C14U A15G C59G U78A has a self-cleavage of 0.04. Variant G8U C17U A65G U69G has a self-cleavage of 0.07. Variant G8U C23U A64G G70C has a self-cleavage of 0.04. Variant G8U C38A C40U G53U U54C U76A has a self-cleavage of 0.04. With G8U C44A A56G U60C the self-cleavage was 0.14. With G8U C50U U54C U58C U60C C81A the self-cleavage was 0.11. With G8U G9A A35G C37G U41C C59A U67C the self-cleavage was 0.04. G8U G9A G53A gave a self-cleavage of 0.44. Work on G8U G33C A77G yielded a self-cleavage of 0.09. For G8U U25A U26C C27A A56G U78C, the self-cleavage was 0.1. G8U U25C A35G showed a self-cleavage of 0.07. Work on G8U U26A U41C U49C yielded a self-cleavage of 0.13. In the case of G8U U26A U41C U49C U76C, the self-cleavage is reported as 0.15. Variant G8U U26C A28G A35G U58C A64G U67C has a self-cleavage of 0.05. Work on G8U U26C U31C A64G G70C yielded a self-cleavage of 0.08. Work on G8U U31C U43G A57G yielded a self-cleavage of 0.1. With G8U U31C U49C the self-cleavage was 0.32. Work on G8U U31G U51A A75U yielded a self-cleavage of 0.05. Variant G8U U41A G52A A64G C71G has a self-cleavage of 0.04. In the case of G8U U41A G61C, the self-cleavage is reported as 0.19. Work on G8U U41A U69A yielded a self-cleavage of 0.15. Variant G8U U41C U69C U76C has a self-cleavage of 0.11. For G8U U43A U60C A64U U78C U80C, the self-cleavage was 0.05. For G8U U51C A65C, the self-cleavage was 0.05. For G8U U54C U78C, the self-cleavage was 0.35. Work on G8U U58C G61A yielded a self-cleavage of 0.09. Variant G8U U72G C81U has a self-cleavage of 0.1. In the case of G9A A13C A18U U31C U51G U67C G70A, the self-cleavage is reported as 0.05. Variant G9A A13C A20G A21G U41A A65G has a self-cleavage of 0.06. G9A A13C A75U showed a self-cleavage of 0.17. With G9A A13C C14U U41A A56C the self-cleavage was 0.17. With G9A A13G A35U C81U the self-cleavage was 0.07. Variant G9A A13G C14U A20G U41C G42A U80C has a self-cleavage of 0.05. G9A A13G C40A A56G U58C G63U showed a self-cleavage of 0.04. G9A A13G C44A C62A G70A gave a self-cleavage of 0.17. In the case of G9A A13U U26G U41A A45G U51C, the self-cleavage is reported as 0.05. For G9A A13U U72A A77G, the self-cleavage was 0.07. G9A A15G A20G G53C U60C U80G showed a self-cleavage of 0.2. With G9A A15G A21G G36C A47G U80A the self-cleavage was 0.02. With G9A A15G A28G C50A U51A U67A the self-cleavage was 0.16. In the case of G9A A15G C23U A35G G36A U54G U76G, the self-cleavage is reported as 0.04. Work on G9A A15G C37U yielded a self-cleavage of 0.21. For G9A A15G U60C, the self-cleavage was 0.35. G9A A15U A18U A57G U60A gave a self-cleavage of 0.46. G9A A15U A35U U72A U78A gave a self-cleavage of 0.03. For G9A A15U A45G U51C U58C U66C U80C, the self-cleavage was 0.05. G9A A15U A47G U60C U69C showed a self-cleavage of 0.06. Work on G9A A15U A57G yielded a self-cleavage of 0.29. Variant G9A A18G A21G U26C G61A has a self-cleavage of 0.25. G9A A18U A20G U66C showed a self-cleavage of 0.28. In the case of G9A A18U G30A G36A A45G U78C, the self-cleavage is reported as 0.04. For G9A A18U U26A C38A U66C U67A C71U, the self-cleavage was 0.03. G9A A18U U60C A64G showed a self-cleavage of 0.05. Work on G9A A20G U41A A56G yielded a self-cleavage of 0.06. For G9A A20G U43A U72C, the self-cleavage was 0.42. G9A A20G U66C showed a self-cleavage of 0.07. With G9A A20U U43A U72C the self-cleavage was 0.27. G9A A21G A75U gave a self-cleavage of 0.06. For G9A A21G C23U, the self-cleavage was 0.04. G9A A21G U31A A64G U69C U76C showed a self-cleavage of 0.08. Work on G9A A21G U31A U43C A65G U67C yielded a self-cleavage of 0.26. With G9A A21G U41A U67C the self-cleavage was 0.13. G9A A21G U51A U69C gave a self-cleavage of 0.03. Work on G9A A21U U66C U69C U78C yielded a self-cleavage of 0.13. In the case of G9A A28G C32U U51G C62A, the self-cleavage is reported as 0.05. G9A A28G G33A U51G gave a self-cleavage of 0.14. In the case of G9A A28U A35U C40U, the self-cleavage is reported as 0.14. G9A A28U C29G U54C gave a self-cleavage of 0.02. For G9A A35C A57U, the self-cleavage was 0.39. With G9A A35G A64U U72C the self-cleavage was 0.15. Work on G9A A35G G42U A57G yielded a self-cleavage of 0.03. G9A A35G U41C A57G U58C A65U gave a self-cleavage of 0.07. In the case of G9A A35G U54A A57U U78C, the self-cleavage is reported as 0.27. G9A A35G U72A gave a self-cleavage of 0.46. Work on G9A A35U U48A U51C yielded a self-cleavage of 0.04. Work on G9A A45U A47G U60A yielded a self-cleavage of 0.33. For G9A A47G U54C U78G, the self-cleavage was 0.06. With G9A A47G U60C U76A the self-cleavage was 0.12. Variant G9A A56G U72A has a self-cleavage of 0.38. Variant G9A A57G C71G has a self-cleavage of 0.13. Variant G9A C11A A21C U54C U76C has a self-cleavage of 0.04. G9A C11G G19C U31A U41C U66C U69C gave a self-cleavage of 0.03. G9A C11U A47G U58A U69C gave a self-cleavage of 0.05. G9A C12G A13G G42U A64U U72C showed a self-cleavage of 0.05. G9A C12U A13U U25C A45C A56G gave a self-cleavage of 0.06. For G9A C12U A35C U43C U49C U54G A56U, the self-cleavage was 0.14. In the case of G9A C14U A20G U25C U74C, the self-cleavage is reported as 0.78. In the case of G9A C17A G22U U26C, the self-cleavage is reported as 0.2. For G9A C17U A57G, the self-cleavage was 0.22. For G9A C17U U26A A28G A35G U76C, the self-cleavage was 0.07. For G9A C17U U26C C39U U72A, the self-cleavage was 0.03. In the case of G9A C23U A35G U41A U58C G70A, the self-cleavage is reported as 0.17. G9A C29U U67C gave a self-cleavage of 0.12. With G9A C32A C38U A64G U69A the self-cleavage was 0.09. With G9A C34U C40G A45U U49A the self-cleavage was 0.13. In the case of G9A C38U A47G U69C U72C, the self-cleavage is reported as 0.38. Work on G9A C38U A64G yielded a self-cleavage of 0.65. G9A C39U U69C A75U U76A gave a self-cleavage of 0.05. Variant G9A C40G U43C U66C U67C C71U U78C has a self-cleavage of 0.02. For G9A C40U A45G G52A A56U A64U A77G, the self-cleavage was 0.03. Work on G9A C44U A47U U51A U80C yielded a self-cleavage of 0.25. With G9A G10C A20U A64G U72C U78A the self-cleavage was 0.05. Variant G9A G10C C11U A20G G30U A35U A56G has a self-cleavage of 0.05. G9A G10C G30U U58C U78A gave a self-cleavage of 0.16. G9A G16A A20G A35G U60G showed a self-cleavage of 0.05. With G9A G22C G53A A77G the self-cleavage was 0.04. With G9A G33A A35U U51C U54A U69C the self-cleavage was 0.05. G9A G36A U51G A65G gave a self-cleavage of 0.07. Work on G9A U25A A28G U58C yielded a self-cleavage of 0.2. G9A U25A U43C gave a self-cleavage of 0.27. G9A U25C A35G U43C U58A U72C gave a self-cleavage of 0.06. G9A U25C G53A A56G gave a self-cleavage of 0.17. With G9A U25C G61A A64G A65U U78C the self-cleavage was 0.05. In the case of G9A U25G U60C U80C, the self-cleavage is reported as 0.17. Work on G9A U26C A28U U48A U80A yielded a self-cleavage of 0.48. Work on G9A U26C A28U U60A A75U A77U yielded a self-cleavage of 0.05. G9A U26C A45G A56U A77G showed a self-cleavage of 0.07. In the case of G9A U26C A45U A56U U60G A77G U80C, the self-cleavage is reported as 0.11. G9A U26C A65G U69A showed a self-cleavage of 0.24. G9A U26C C37U U54C A56U showed a self-cleavage of 0.05. For G9A U26C U49C, the self-cleavage was 0.22. In the case of G9A U26G A56U, the self-cleavage is reported as 0.18.
